# This is one part of the list.
# B1: Gal 3C (Homo sapiens), P17931 (protein)
# chain: YGAPAGPLIVPYNLPLPGGVVPRMLITILGTVKPNANRIALDFQRGNDVAFHFNPRFNENNRRVIVCNTKLDNNWGREERQSVFPFESGKPFKIQVLVEPDHFKVAVNDAHLLQYNHRVKKLNEISKLGISGDIDLTSASYTMI
# Columns and labels:
# Experiment in all cases: glycan array binding signal (z-score within array); higher = stronger binding
# Conditions in all cases: glycan notation: IUPAC condensed, linker removed
# Glc(b1-4)Glc = molecular target: Glc(b1-4)Glc
# Summary of the method: (§1)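 The binding signal is a Z-score computed within each array. Data were drawn from 3228 arrays in the Consortium for Functional Glycomics database, restricted to those with a known protein sequence. Scores were averaged over arrays of the same protein sequence at different concentrations or buffers, and over linkers, and negative values can be taken as non-binding.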
# Glc(b1-6)Glc = molecular target: Glc(b1-6)Glc
# Summary of the method: as §1
# GlcA(b1-3)Gal = molecular target: GlcA(b1-3)Gal
# Summary of the method: as §1
# GlcA(b1-3)GlcNAc = molecular target: GlcA(b1-3)GlcNAc
# Summary of the method: as §1
# GlcA(b1-6)Gal = molecular target: GlcA(b1-6)Gal
# Summary of the method: as §1
# [1] = molecular target: GlcA3S(b1-3)Gal(b1-4)GlcNAc(b1-2)Man
# Summary of the method: as §1
# [2] = molecular target: GlcA3S(b1-3)Gal(b1-4)GlcNAc(b1-3)Gal(b1-4)Glc
# Summary of the method: as §1
# [3] = molecular target: GlcNAc(a1-3)Gal(b1-4)GlcNAc
# Summary of the method: as §1
# [4] = molecular target: GlcNAc(a1-4)Gal(b1-3)GlcNAc
# Summary of the method: as §1
# [5] = molecular target: GlcNAc(a1-4)Gal(b1-4)GalNAc
# Summary of the method: as §1
# [6] = molecular target: GlcNAc(a1-4)Gal(b1-4)GlcNAc
# Summary of the method: as §1
# [7] = molecular target: GlcNAc(a1-4)Gal(b1-4)GlcNAc(b1-3)Gal(b1-4)Glc
# Summary of the method: as §1
# [8] = molecular target: GlcNAc(a1-4)Gal(b1-4)GlcNAc(b1-3)Gal(b1-4)GlcNAc
# Summary of the method: as §1
# [9] = molecular target: GlcNAc(a1-4)Gal(b1-4)GlcNAc(b1-3)Gal(b1-4)GlcNAc(b1-3)Gal(b1-4)GlcNAc
# Summary of the method: as §1
# [10] = molecular target: GlcNAc(a1-4)Gal(b1-4)GlcNAc(b1-3)Gal(b1-4)[Fuc(a1-3)]GlcNAc(b1-3)Gal(b1-4)[Fuc(a1-3)]GlcNAc
# Summary of the method: as §1
# [11] = molecular target: GlcNAc(a1-6)Gal(b1-4)GlcNAc
# Summary of the method: as §1
# [12] = molecular target: GlcNAc(b1-2)Gal(b1-3)GalNAc
# Summary of the method: as §1
# [13] = molecular target: GlcNAc(b1-2)Man(a1-3)[GlcNAc(b1-2)Man(a1-6)]Man(b1-4)GlcNAc(b1-4)GlcNAc
# Summary of the method: as §1
# [14] = molecular target: GlcNAc(b1-2)Man(a1-3)[GlcNAc(b1-2)Man(a1-6)]Man(b1-4)GlcNAc(b1-4)[Fuc(a1-6)]GlcNAc
# Summary of the method: as §1
# [15] = molecular target: GlcNAc(b1-2)Man(a1-3)[GlcNAc(b1-4)][GlcNAc(b1-2)Man(a1-6)]Man(b1-4)GlcNAc(b1-4)GlcNAc
# Summary of the method: as §1
# [16] = molecular target: GlcNAc(b1-2)Man(a1-3)[GlcNAc(b1-4)][GlcNAc(b1-2)Man(a1-6)]Man(b1-4)GlcNAc(b1-4)[Fuc(a1-6)]GlcNAc
# Summary of the method: as §1
# [17] = molecular target: GlcNAc(b1-2)[GlcNAc(b1-4)]Man(a1-3)[GlcNAc(b1-2)Man(a1-6)]Man(b1-4)GlcNAc(b1-4)GlcNAc
# Summary of the method: as §1
# [18] = molecular target: GlcNAc(b1-2)[GlcNAc(b1-4)]Man(a1-3)[GlcNAc(b1-4)][GlcNAc(b1-2)Man(a1-6)]Man(b1-4)GlcNAc(b1-4)GlcNAc
# Summary of the method: as §1
# [19] = molecular target: GlcNAc(b1-2)[GlcNAc(b1-4)]Man(a1-3)[GlcNAc(b1-4)][GlcNAc(b1-2)[GlcNAc(b1-6)]Man(a1-6)]Man(b1-4)GlcNAc(b1-4)GlcNAc
# Summary of the method: as §1
# [20] = molecular target: GlcNAc(b1-2)[GlcNAc(b1-4)]Man(a1-3)[GlcNAc(b1-4)][GlcNAc(b1-2)[GlcNAc(b1-6)]Man(a1-6)]Man(b1-4)GlcNAc(b1-4)[Fuc(a1-6)]GlcNAc
# Summary of the method: as §1
# [21] = molecular target: GlcNAc(b1-2)[GlcNAc(b1-6)]Man(a1-6)[GlcNAc(b1-2)Man(a1-3)]Man(b1-4)GlcNAc(b1-4)GlcNAc
# Summary of the method: as §1
# [22] = molecular target: GlcNAc(b1-2)[GlcNAc(b1-6)]Man(a1-6)[GlcNAc(b1-2)Man(a1-3)]Man(b1-4)GlcNAc(b1-4)[Fuc(a1-6)]GlcNAc
# Summary of the method: as §1
# [23] = molecular target: GlcNAc(b1-2)[GlcNAc(b1-6)]Man(a1-6)[GlcNAc(b1-4)][GlcNAc(b1-2)Man(a1-3)]Man(b1-4)GlcNAc(b1-4)GlcNAc
# Summary of the method: as §1
# GlcNAc(b1-3)Fuc = molecular target: GlcNAc(b1-3)Fuc
# Summary of the method: as §1
# GlcNAc(b1-3)Gal = molecular target: GlcNAc(b1-3)Gal
# Summary of the method: as §1
# [24] = molecular target: GlcNAc(b1-3)Gal(b1-3)GalNAc
# Summary of the method: as §1
# GlcNAc(b1-3)Gal(b1-4)Glc = molecular target: GlcNAc(b1-3)Gal(b1-4)Glc
# Summary of the method: as §1
# [25] = molecular target: GlcNAc(b1-3)Gal(b1-4)GlcNAc
# Summary of the method: as §1
# [26] = molecular target: GlcNAc(b1-3)Gal(b1-4)GlcNAc(b1-2)Man(a1-3)[GlcNAc(b1-3)Gal(b1-4)GlcNAc(b1-2)Man(a1-6)]Man(b1-4)GlcNAc(b1-4)GlcNAc
# Summary of the method: as §1
# [27] = molecular target: GlcNAc(b1-3)Gal(b1-4)GlcNAc(b1-2)Man(a1-3)[GlcNAc(b1-3)Gal(b1-4)GlcNAc(b1-2)Man(a1-6)]Man(b1-4)GlcNAc(b1-4)[Fuc(a1-6)]GlcNAc
# Summary of the method: as §1
# [28] = molecular target: GlcNAc(b1-3)Gal(b1-4)GlcNAc(b1-2)[GlcNAc(b1-3)Gal(b1-4)GlcNAc(b1-6)]Man(a1-6)[GlcNAc(b1-3)Gal(b1-4)GlcNAc(b1-2)Man(a1-3)]Man(b1-4)GlcNAc(b1-4)GlcNAc
# Summary of the method: as §1
# [29] = molecular target: GlcNAc(b1-3)Gal(b1-4)GlcNAc(b1-3)Gal(b1-4)GlcNAc
# Summary of the method: as §1
# [30] = molecular target: GlcNAc(b1-3)Gal(b1-4)GlcNAc(b1-3)Gal(b1-4)GlcNAc(b1-2)Man(a1-3)[GlcNAc(b1-3)Gal(b1-4)GlcNAc(b1-3)Gal(b1-4)GlcNAc(b1-2)Man(a1-6)]Man(b1-4)GlcNAc(b1-4)GlcNAc
# Summary of the method: as §1
# [31] = molecular target: GlcNAc(b1-3)Gal(b1-4)GlcNAc(b1-3)Gal(b1-4)GlcNAc(b1-2)Man(a1-3)[GlcNAc(b1-3)Gal(b1-4)GlcNAc(b1-3)Gal(b1-4)GlcNAc(b1-2)Man(a1-6)]Man(b1-4)GlcNAc(b1-4)[Fuc(a1-6)]GlcNAc
# Summary of the method: as §1
# [32] = molecular target: GlcNAc(b1-3)Gal(b1-4)GlcNAc(b1-3)Gal(b1-4)GlcNAc(b1-2)[GlcNAc(b1-3)Gal(b1-4)GlcNAc(b1-3)Gal(b1-4)GlcNAc(b1-6)]Man(a1-6)[GlcNAc(b1-3)Gal(b1-4)GlcNAc(b1-3)Gal(b1-4)GlcNAc(b1-2)Man(a1-3)]Man(b1-4)GlcNAc(b1-4)[Fuc(a1-6)]GlcNAc
# Summary of the method: as §1
# [33] = molecular target: GlcNAc(b1-3)Gal(b1-4)GlcNAc(b1-3)Gal(b1-4)GlcNAc(b1-3)Gal(b1-4)GlcNAc(b1-2)Man(a1-3)[GlcNAc(b1-3)Gal(b1-4)GlcNAc(b1-3)Gal(b1-4)GlcNAc(b1-3)Gal(b1-4)GlcNAc(b1-2)Man(a1-6)]Man(b1-4)GlcNAc(b1-4)GlcNAc
# Summary of the method: as §1
# [34] = molecular target: GlcNAc(b1-3)Gal(b1-4)GlcNAc(b1-3)Gal(b1-4)GlcNAc(b1-3)Gal(b1-4)GlcNAc(b1-2)Man(a1-3)[GlcNAc(b1-3)Gal(b1-4)GlcNAc(b1-3)Gal(b1-4)GlcNAc(b1-3)Gal(b1-4)GlcNAc(b1-2)Man(a1-6)]Man(b1-4)GlcNAc(b1-4)[Fuc(a1-6)]GlcNAc
# Summary of the method: as §1
# [35] = molecular target: GlcNAc(b1-3)Gal(b1-4)GlcNAc(b1-3)Gal(b1-4)GlcNAc(b1-3)Gal(b1-4)GlcNAc(b1-2)[GlcNAc(b1-3)Gal(b1-4)GlcNAc(b1-3)Gal(b1-4)GlcNAc(b1-3)Gal(b1-4)GlcNAc(b1-6)]Man(a1-6)[GlcNAc(b1-3)Gal(b1-4)GlcNAc(b1-3)Gal(b1-4)GlcNAc(b1-3)Gal(b1-4)GlcNAc(b1-2)Man(a1-3)]Man(b1-4)GlcNAc(b1-4)[Fuc(a1-6)]GlcNAc
# Summary of the method: as §1
# [36] = molecular target: GlcNAc(b1-3)Gal(b1-4)GlcNAc(b1-3)Gal(b1-4)GlcNAc(b1-3)Gal(b1-4)GlcNAc(b1-3)Gal(b1-4)GlcNAc(b1-2)Man(a1-3)[GlcNAc(b1-3)Gal(b1-4)GlcNAc(b1-3)Gal(b1-4)GlcNAc(b1-3)Gal(b1-4)GlcNAc(b1-3)Gal(b1-4)GlcNAc(b1-2)Man(a1-6)]Man(b1-4)GlcNAc(b1-4)GlcNAc
# Summary of the method: as §1
# [37] = molecular target: GlcNAc(b1-3)Gal(b1-4)GlcNAc(b1-3)Gal(b1-4)GlcNAc(b1-3)Gal(b1-4)GlcNAc(b1-3)Gal(b1-4)GlcNAc(b1-2)Man(a1-3)[GlcNAc(b1-3)Gal(b1-4)GlcNAc(b1-3)Gal(b1-4)GlcNAc(b1-3)Gal(b1-4)GlcNAc(b1-3)Gal(b1-4)GlcNAc(b1-2)Man(a1-6)]Man(b1-4)GlcNAc(b1-4)[Fuc(a1-6)]GlcNAc
# Summary of the method: as §1
binder,measurement,setting,value
B1,glycan array binding signal (z-score),Glc(b1-4)Glc,-0.331
same,glycan array binding signal (z-score),Glc(b1-6)Glc,-0.307
same,glycan array binding signal (z-score),GlcA(b1-3)Gal,-0.345
same,glycan array binding signal (z-score),GlcA(b1-3)GlcNAc,-0.291
same,glycan array binding signal (z-score),GlcA(b1-6)Gal,-0.282
same,glycan array binding signal (z-score),[1],-0.265
same,glycan array binding signal (z-score),[2],0.119
same,glycan array binding signal (z-score),[3],-0.317
same,glycan array binding signal (z-score),[4],-0.261
same,glycan array binding signal (z-score),[5],-0.282
same,glycan array binding signal (z-score),[6],-0.298
same,glycan array binding signal (z-score),[7],-0.215
same,glycan array binding signal (z-score),[8],-0.2
same,glycan array binding signal (z-score),[9],1.33
same,glycan array binding signal (z-score),[10],-0.219
same,glycan array binding signal (z-score),[11],-0.304
same,glycan array binding signal (z-score),[12],-0.232
same,glycan array binding signal (z-score),[13],-0.279
same,glycan array binding signal (z-score),[14],-0.196
same,glycan array binding signal (z-score),[15],-0.312
same,glycan array binding signal (z-score),[16],-0.313
same,glycan array binding signal (z-score),[17],-0.323
same,glycan array binding signal (z-score),[18],-0.294
same,glycan array binding signal (z-score),[19],-0.311
same,glycan array binding signal (z-score),[20],-0.344
same,glycan array binding signal (z-score),[21],-0.283
same,glycan array binding signal (z-score),[22],-0.222
same,glycan array binding signal (z-score),[23],-0.357
same,glycan array binding signal (z-score),GlcNAc(b1-3)Fuc,-0.194
same,glycan array binding signal (z-score),GlcNAc(b1-3)Gal,-0.261
same,glycan array binding signal (z-score),[24],-0.333
same,glycan array binding signal (z-score),GlcNAc(b1-3)Gal(b1-4)Glc,-0.318
same,glycan array binding signal (z-score),[25],-0.194
same,glycan array binding signal (z-score),[26],0.466
same,glycan array binding signal (z-score),[27],0.418
same,glycan array binding signal (z-score),[28],0.837
same,glycan array binding signal (z-score),[29],2.52
same,glycan array binding signal (z-score),[30],2.25
same,glycan array binding signal (z-score),[31],3.19
same,glycan array binding signal (z-score),[32],1.81
same,glycan array binding signal (z-score),[33],3.45
same,glycan array binding signal (z-score),[34],3.07
same,glycan array binding signal (z-score),[35],2.76
same,glycan array binding signal (z-score),[36],4.63
same,glycan array binding signal (z-score),[37],4.02
